Screen size: about 150,000 compounds; about 540 (0.36%) showed an effect of 50% or more. Some of the results follow.

The experiment concerns Plasmodium falciparum. Kind of experiment: Primary screen in NF54 nanoGlo assay, in single point, at 2uM, 72h; a lower Z score goes with more inhibition. The class given is functional, Erythrocyte. As to conditions: timepoint 72 hour.
What is called % Inhibition is the change of the read-out against control, counted positive when it falls. For `[O-][S+]1CCN(c2ccc3nccnc3n2)CC1`, the “% Inhibition” value was determined as 3% and the Z score was -0.37.
With `COC[C@@H]1[C@H](NC(=O)c2cc(C)c(-c3ccccc3)s2)[C@H]2CCO[C@H]21`, the “% Inhibition” value is -6% and the Z score stood at 0.99.
As for `CN(C)C(=O)CN1C(=O)[C@@H]2CC[C@H]1CN(C(=O)c1ccc3ccccc3c1)C2`, the “% Inhibition” value is recorded as -11% and the Z score came out at 1.72.
On to `Cc1nc(O)nc(C)c1CCC(=O)N1CC[C@@](O)(C2CCOCC2)[C@H](C)C1`, for which the “% Inhibition” value is reported as -3% and the Z score is given as 0.46.
On to `CCn1cc(-c2nc(CC(=O)N3CCN(c4ccccc4)CC3)cs2)c2cccnc21`, for which the “% Inhibition” value is on record as -7% and the Z score is given as 1.29.
With `Cc1cc(C)c(C#N)c(N2CC[C@@]3(CCCN(CC4CCC4)C3=O)C2)n1`, the “% Inhibition” value is -6% and the Z score was found to be 1.28.
For `Cc1cc(-c2nc(-c3ccccn3)no2)on1`, the “% Inhibition” value is recorded as -7% and the Z score came to 1.17.
As to `O=C(NC1CCCCC1)C1CCCCC1`, the “% Inhibition” value is on record as -11% and the Z score is on record as 1.46.
For the molecule `CC[C@@H](C(=O)N(C)Cc1cc(C2CC2)on1)n1cccn1`, the “% Inhibition” value was 4% and the Z score is -0.81.
For the molecule `CC(C)(C)c1ccc(S(=O)(=O)NCC(F)(F)CO)s1`, the “% Inhibition” value is recorded as -12% and the Z score worked out at 1.57.
In the same order, the values of `O=C(C[C@@H]1CCN2C[C@@H]1/C=C\COc1ccccc1CNCC2=O)NC1CC1` are -3% and 0.53.
As for `Cc1cccc(C(=O)N2CCC(c3ccn4ncc(C(=O)N5CCOCC5)c4c3)CC2)c1`, the “% Inhibition” value is -8% and the Z score worked out at 1.36.
On to `O=c1ccn(Cc2cc(C3CC3)no2)c2c(OC(F)(F)F)cccc12`, for which the “% Inhibition” value is recorded as -3% and the Z score is 0.29.
As to `Cc1noc([C@@H]2CCN(C(=O)CCc3c(C)noc3C)CCN2C(=O)C2CCCC2)n1`, the “% Inhibition” value is on record as -17% and the Z score amounted to 2.22.
As for `CC(C)[C@@H]1N(C(=O)NCc2ccc(Cn3ccnc3)cc2)CC12CC=CC2`, the “% Inhibition” value is reported as -10% and the Z score is 1.34.
Take `CCOC(CCNC(=O)N1CCCC2CN(C)CCC21)C(C)C` (centres undefined): the “% Inhibition” value was -9% and the Z score was 1.18.
Turning to `Cc1cccn2cc(CN3C[C@H](O)[C@@H](F)C3)nc12`, the “% Inhibition” value is listed as -6% and the Z score was determined as 1.23.
In the same order, the values of `Cc1cc(CN2CCC[C@@H]2C(F)F)n(C)n1` are -3% and 0.35.
Turning to `Cc1nc2sc(C(=O)Nc3cnc4ccccc4c3)c(N)c2c(C)c1C`, the “% Inhibition” value is -11% and the Z score was found to be 1.5.
`O=C(CCC(F)(F)F)N1CCN(C(=O)c2ccc3[nH]cnc3c2)CC1`: the “% Inhibition” value was -1% and the Z score stood at 0.07.
With `CC(=O)N[C@@H](C)C(=O)N(Cc1ccccc1)CC(F)F`, the “% Inhibition” value was -2% and the Z score worked out at 0.21.
Consider `O=C(c1cc(-c2ccc(F)cc2)c[nH]1)N1CCC(N2CC(=O)N(C3CC3)C2=O)CC1`, for which the “% Inhibition” value was 2% and the Z score is -0.18.
In the case of `O[C@H]1[C@H](n2cc(-c3ccsc3)nn2)c2ccccc2C12CCNCC2`, the “% Inhibition” value came to 0% and the Z score was found to be 0.02.
In the same order, the values of `CCC(CC)NS(=O)(=O)c1cc(OC)ccc1OC` are -15% and 2.31.
For the molecule `Cc1ccc(CCC(=O)NCc2ccc(N3CCS(=O)(=O)CC3)cc2)cc1`, the “% Inhibition” value is on record as -7% and the Z score was found to be 1.01.
In the case of `Cc1cccnc1CNC(=O)[C@H]1CC(=O)N(CCN2CCOCC2)C1`, the “% Inhibition” value worked out at 2% and the Z score is on record as -0.25.
For the molecule `O=C(Nc1ccccc1)N1CCC(c2nnc(-c3ccco3)o2)CC1`, the “% Inhibition” value was found to be 11% and the Z score is -1.45.
`CC1=C(C(=O)NCCC(F)(F)F)Cn2nnnc2N1C`: the “% Inhibition” value is on record as 0% and the Z score stood at 0.01.
With `Cc1cccc2oc(C(=O)N3CC[C@@]4(O)C[C@H]4C3)cc12`, the “% Inhibition” value was -12% and the Z score worked out at 1.48.
In the same order, the values of `CN(C)C[C@]12CN(C(=O)COc3ccccc3)C[C@H]1CN(C(=O)c1ccccc1)C2` are -15% and 2.07.
In the same order, the values of `O=C(c1cc2ncc(CCO)cn2n1)N1C[C@H]2CCC[C@@H]1C2` are -5% and 0.94.
Turning to `CC(C)c1ocnc1C(=O)N1CC(=O)Nc2cnccc21`, the “% Inhibition” value was determined as 1% and the Z score was -0.16.
`COc1cccc(-c2cc(C(=O)NCc3cncc(N4CCCC4=O)c3)n(C)n2)c1`: the “% Inhibition” value is listed as -6% and the Z score is 1.22.
In the case of `CC(C)CN(CCC(=O)NCc1ccccc1)c1nc(-c2ccccc2)nc2cc(Cl)ccc12`, the “% Inhibition” value is listed as 5% and the Z score is -0.82.
Take `Cc1oc(-c2ccccc2)c(C(=O)NCCNS(C)(=O)=O)c1C`: the “% Inhibition” value was -8% and the Z score was 1.09.
As to `Cc1nn(C)c(C)c1CCC(=O)N(C)c1cc(C#N)ccn1`, the “% Inhibition” value is -11% and the Z score stood at 1.59.
In the same order, the values of `Cc1c(NC(=O)N(C)c2ccccc2)c(=O)n(-c2ccccc2)n1C` are -2% and 0.21.
Regarding `CCC(=O)Nc1ccc2c(c1)cc(C(=O)Nc1ccc(C(F)(F)F)cc1)n2Cc1ccc(C(C)(C)C)cc1`, the “% Inhibition” value was 2% and the Z score is -0.26.
`CCc1noc(C)c1C(=O)N1CCN(C)C[C@@H]1C`: the “% Inhibition” value is on record as -14% and the Z score was 2.16.
With `COCCc1noc(-c2ccccc2OC2CN(C(=O)CCn3nc(C)cc3C)C2)n1`, the “% Inhibition” value is 11% and the Z score is listed as -1.26.
For the molecule `Cc1cc(N)n(CC(=O)N2CCn3cccc3C2)n1`, the “% Inhibition” value is listed as -5% and the Z score is 0.75.
As for `O=C(NC[C@H]1CCCN(Cc2ccco2)C1)c1ccncc1Cl`, the “% Inhibition” value came to 8% and the Z score is reported as -1.03.

Source of the values: ChEMBL document CHEMBL4888484, “Replenishing the malaria drug discovery pipeline: Screening and hit evaluation of the MMV Hit Generation Library 1 (HGL1) against asexual blood stage Plasmodium falciparum ,using a nano luciferase reporter read-out” (2022).
